Results from paper PMC12136788.
Some of the results follow.

B1: chr16:3727180:3727281:-|3pUTR|ENSG00000005339|msi1|total|mutant (ssRNA)
RNA: GGGAGUUCUACAGUCCGACGAUCAAUGCAAGCUUAUAAUGUAUCCCGAUAACUUUGUGAUGUUUCGGGAAGAUUUUUUUCUACCGUGAACUCUGUGGGCGUCUCCCAGUAUUACCCUGGAUGACCGGAAUUGACUCCGGCGUGCAACAGAGGAUUGAGCAUCA
B2: chr7:6403584:6403671:+|3pUTR|ENSG00000136238|msi1_unk|total|mutant (ssRNA)
RNA: GGGAGUUCUACAGUCCGACGAUCUUUUCCCGUAACCCGGUGUAAAAAUCAUGUGUUGCAGCUUUACCGUUUUUAAAAUAUUUCCGAUAAUUCUUAAACUAUGAACCUUCUUAACAUCACUGUCUUGCCAGAUUACCGACACUGCAACAGAGGAUUGAGCAUCA
B3: chr2:190436306:190436418:+|CDS|ENSG00000151690|unk|FALSE|unique (ssRNA)
RNA: GGGAGUUCUACAGUCCGACGAUCCCUUUUGCCUGUGUAUUACAAACAGCUGGGAAUGUCUCCAAGCCAGAGUGGACUACUAGUAGGUAUUCGUUACUUCAUUGAAUUCUGCAGUGCCCCCUUUUGGGGUGUAGUUGCAGACCGCAACAGAGGAUUGAGCAUCA
B4: chr1:51919672:51919773:-|3pUTR|ENSG00000169213|unk|total|mutant (ssRNA)
RNA: GGGAGUUCUACAGUCCGACGAUCUAUUCUUUGCCUGCCCCUGGGGUUCUCUGCAGAUGGUCCCAGUAACCGAUACUCAGCACCCGACUAACAUAACAGGUCACUACACGGGUGCAGAAUCACUUUACAAAAGAAGACUCUGUUCAACAGAGGAUUGAGCAUCA
B5: chr4:102797111:102797208:-|3pUTR|ENSG00000109332|msi1_unk|FALSE|overlapping (ssRNA)
RNA: GGGAGUUCUACAGUCCGACGAUCUCUGAGAAGACUUAAGUUCUUCCAGCUUUGGACAAUAACUGCUUUUAGAAACUGUAAAGUAGUUACAAGAGAACAGUUGCCCAAGACUCAGAAUUUUUAAAAAAAAAAAUGGAGCAUGUGCAACAGAGGAUUGAGCAUCA
B6: chr6:132296306:132296407:-|3pUTR|ENSG00000079931|msi1|FALSE|unique (ssRNA)
RNA: GGGAGUUCUACAGUCCGACGAUCAUGGGAAACAUAGAAAUGGUAUGUAUUAAUAACUGAUCAUAGGCUGAGGAGAAAAAAUGUAGCUGGCUGCAAACCCAGUGCUGUGAGGUGACUUAUAUGAGGUUCCAGAUCAAAGACAGGCAACAGAGGAUUGAGCAUCA
B7: ENSG00000198589:be:win_5701|CDS|ENSG00000198589|bound_else_gene|NA|bound_elsewhere_windowed (ssRNA)
RNA: GGGAGUUCUACAGUCCGACGAUCUUUAUCCUGAGCAGGCAGAGAGCAGAAGAUAUUCACAGACAUGCGGAAUUUGAGUCACUGUGUGCCCAGUAUUCUGCAGACAAACGAGAAGAUGAGAAGAUGUGUGAUCAUUUGAUAAGACAACAGAGGAUUGAGCAUCA
B8: chr17:34256851:34257067:+|3pUTR|ENSG00000108691|msi1|FALSE|unique (ssRNA)
RNA: GGGAGUUCUACAGUCCGACGAUCUUAAGUAAUGUUAAUUCUUAUUUAAGUUAUUGAUGUUUUAAGUUUAUCUUUCAUGGUACUAGUGUUUUUUAGAUACAGAGACUUGGGGAAAUUGCUUUUCCUCUUGAACCACAGUUCUACCAACAGAGGAUUGAGCAUCA
B9: chr3:141442868:141442977:+|CDS|ENSG00000177311|unk|FALSE|unique (ssRNA)
RNA: GGGAGUUCUACAGUCCGACGAUCCCAGCCAUCACUAAUGGGCCAAGGAUCACAAAUGCAUUUUCCAUCAUCGAAACAGAAAAUAGUAAUAACAUGUUUUCCCCGCUGGACUUGAGGGCAAGUUUCAAAAAGGUCUCCGACUCCCAACAGAGGAUUGAGCAUCA
B10: ENSG00000162129:stop:overlap|stop_codon|ENSG00000162129|stop_codon|NA|stop_codon (ssRNA)
RNA: GGGAGUUCUACAGUCCGACGAUCAGACUCGCAGACUGGACAUCCGGGCACCACUGCACCCUGAGAAGGUGUGCAACACCAUCUAGCAGCCACCUGCCUGCUCCUAUGUGCCCUCACCAUCCAAUAAAGGCCCCUUGGCUGUGGCAACAGAGGAUUGAGCAUCA
B11: chr12:110381781:110381892:-|CDS|ENSG00000196510|unk|total|mutant (ssRNA)
RNA: GGGAGUUCUACAGUCCGACGAUCAAGGCCAUUCAGCUGAACAGUAACCGUGUUCAAGCUCUGCUACUUAAGGGAGCAGCACUCCGGAACAUGGGCAGAGUCCAAGAAGCAAUAAUCCACUUUCGGGAGGCCAUACGGCUCGCACAACAGAGGAUUGAGCAUCA
B12: chr16:57471571:57471634:+|3pUTR|ENSG00000102978|msi1_unk|FALSE|overlapping (ssRNA)
RNA: GGGAGUUCUACAGUCCGACGAUCAUAGCCUUUAUUCAGGGGGCCUAUAAACCCUUCCAGUUCUUGCCCCAGGGCUGGCCUGCUAGCGCUUCAAAUUCCCAGGUGUCCCUAAUUUGAGAAGUAACCUUUUGGAAUAGCAUUAGACAACAGAGGAUUGAGCAUCA
B13: chr1:231019617:231019718:-|3pUTR|ENSG00000182118|msi1|total|mutant (ssRNA)
RNA: GGGAGUUCUACAGUCCGACGAUCGCAGGGAGUUCUCCGCGGAUGCAUGGUGGCAGUCUGCUUUGAUGGCAGCAGUUUCUGCUCCGGUGACCCCGAGGUCCUCAGCAGUAUCCUCCACACCUAUUUAUUGAGGUGCACCUGCUGCAACAGAGGAUUGAGCAUCA
B14: chr11:102955251:102955493:-|CDS|ENSG00000137745|control|control|control (ssRNA)
RNA: GGGAGUUCUACAGUCCGACGAUCCCGAGAAAUGCAGUCUUUCUUCGGCUUAGAGGUGACUGGCAAACUUGACGAUAACACCUUAGAUGUCAUGAAAAAGCCAAGAUGCGGGGUUCCUGAUGUGGGUGAAUACAAUGUUUUCCCCAACAGAGGAUUGAGCAUCA

molecular target: MSI1 full-length (mouse, UniProt Q61474 1-362); assay: nsRBNS (natural sequence RNA bind-n-seq); RBNS binding buffer (assumed for nsRBNS): 25 mM Tris pH 7.5, 150 mM KCl, 3 mM MgCl2, 0.01% Triton X-100, 500 ug/ml BSA, 20 U/ml SUPERase-In, 4 C; UNK is unkempt and MSI1 is Musashi-1; names of the RNAs are library labels; protein concentration not given here; high values mean tight binding
UniProt Q61474, sequence (Q61474 whole entry): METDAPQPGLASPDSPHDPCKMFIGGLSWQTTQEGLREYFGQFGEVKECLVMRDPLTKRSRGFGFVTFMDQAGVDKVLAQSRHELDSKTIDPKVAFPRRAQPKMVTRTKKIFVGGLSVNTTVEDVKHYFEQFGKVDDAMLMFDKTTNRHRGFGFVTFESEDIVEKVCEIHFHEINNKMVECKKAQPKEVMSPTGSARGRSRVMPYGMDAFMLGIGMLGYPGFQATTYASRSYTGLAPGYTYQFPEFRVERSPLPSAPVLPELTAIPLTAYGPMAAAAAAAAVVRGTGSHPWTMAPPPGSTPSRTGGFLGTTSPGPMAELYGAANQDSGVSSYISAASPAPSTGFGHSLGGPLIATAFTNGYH

Binder | binding signal [enrichment R]
B1 | 0.299
B2 | 0.784
B3 | 0.399
B4 | 0.446
B5 | 0.542
B6 | 0.782
B7 | 0.412
B8 | 2.2
B9 | 0.514
B10 | 0.491
B11 | 0.369
B12 | 3.1
B13 | 0.43
B14 | 0.595
